Experimental findings from the supplement of paper PMC4206461 are described below.

Some of the results follow.

For the first assay, the system named is Pseudomonas aeruginosa PA14 dppA1-A5 penta deletion mutant. The experiment in a line: respiration area under curve with compound as sole nitrogen source, 24 h (OmniLog AUC (arbitrary units)); higher = more respiration / better utilisation as nitrogen source, active = 2000 or more; extreme values may be limits of the assay. As to conditions: plate: PM6. As to the method: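 Biolog Phenotype MicroArray plates PM6-PM8: each di/tripeptide is the sole nitrogen source. Tetrazolium reduction was read in the OmniLog for 24 h at 37°C and summarised as area under the respiration curve (arbitrary units). Values below 2000 count as no respiration.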
Turning to `C[C@H](N)C(=O)N[C@@H](CCCN=C(N)N)C(=O)O`, the “respiration area under curve” value was active: 10200.

For `N[C@@H](CC(=O)O)C(=O)N[C@@H](Cc1ccccc1)C(=O)O`, the “respiration area under curve” value was inactive: 163.

In the case of `CC(C)C[C@H](N)C(=O)N[C@@H](Cc1ccccc1)C(=O)O`, the “respiration area under curve” value was active: 5660.

For the compound `CC(C)C[C@H](N)C(=O)N[C@@H](C)C(=O)O`, the “respiration area under curve” value was active: 8940. On the same count and under the same terms, with `CC[C@H](C)[C@H](N)C(=O)NCC(=O)O` the figure was inactive: 388; with `N[C@@H](CC(=O)O)C(=O)N[C@@H](CC(=O)O)C(=O)O`, inactive: 130.

For `CC(C)C[C@H](NC(=O)[C@@H](N)CC(C)C)C(=O)O`, the “respiration area under curve” value was active: 3110. With `C[C@@H](O)[C@H](NC(=O)CN)C(=O)O`, the “respiration area under curve” value was inactive: 150. For `NCC(=O)N[C@@H](Cc1ccccc1)C(=O)O`, the “respiration area under curve” value was inactive: 689.

For `NC(N)=NCCC[C@H](N)C(=O)N[C@@H](CC(=O)O)C(=O)O`, the “respiration area under curve” value is active: 9050.

In the case of `NCC(=O)N[C@@H](CO)C(=O)O`, the “respiration area under curve” value was active: 3360.

As for `CC(C)C[C@H](NC(=O)[C@@H](N)CCCN=C(N)N)C(=O)O`, the “respiration area under curve” value was active: 9380. Turning to `CC[C@H](C)[C@H](N)C(=O)N1CCC[C@H]1C(=O)O`, the “respiration area under curve” value is inactive: 3.

Staying with this assay, now noted: plate: PM7.
In the case of `CSCC[C@H](N)C(=O)N1CCC[C@H]1C(=O)O`, the “respiration area under curve” value is inactive: 31.9. Still for that read-out and setting: to `N[C@@H](Cc1ccccc1)C(=O)N[C@@H](Cc1c[nH]c2ccccc12)C(=O)O` belongs inactive: 732; to `CSCC[C@H](N)C(=O)N[C@@H](CC(=O)O)C(=O)O`, inactive: 1880. For `N[C@@H](Cc1c[nH]c2ccccc12)C(=O)N[C@@H](Cc1c[nH]c2ccccc12)C(=O)O`, the “respiration area under curve” value was inactive: 686. For `CSCC[C@H](NC(=O)[C@@H](N)[C@@H](C)O)C(=O)O`, the “respiration area under curve” value is inactive: 1260. As for `CC(C)C[C@H](NC(=O)[C@@H](N)Cc1c[nH]c2ccccc12)C(=O)O`, the “respiration area under curve” value is active: 4500. For `CSCC[C@H](N)C(=O)N[C@@H](CCC(N)=O)C(=O)O`, the “respiration area under curve” value is active: 4530. On the same count and under the same terms, to `N[C@@H](Cc1ccccc1)C(=O)N[C@@H](CO)C(=O)O` belongs active: 3210; to `CC(C)C[C@H](NC(=O)[C@@H](N)C(C)C)C(=O)O`, active: 6420. Regarding `N[C@@H](Cc1c[nH]c2ccccc12)C(=O)NCC(=O)O`, the “respiration area under curve” value was inactive: 675. On to `CC[C@H](C)[C@H](NC(=O)[C@@H](N)Cc1ccccc1)C(=O)O`, for which the “respiration area under curve” value was active: 8280. Consider `N[C@@H](Cc1ccc(O)cc1)C(=O)N[C@@H](Cc1ccc(O)cc1)C(=O)O`, for which the “respiration area under curve” value is active: 7100. Still for that read-out and setting: to `N[C@@H](Cc1ccccc1)C(=O)N[C@@H](Cc1ccccc1)C(=O)O` belongs active: 5040.

Turning to `C[C@@H](O)[C@H](N)C(=O)N1CCC[C@H]1C(=O)O`, the “respiration area under curve” value was inactive: 0. Regarding `N[C@@H](Cc1c[nH]c2ccccc12)C(=O)N[C@@H](Cc1ccc(O)cc1)C(=O)O`, the “respiration area under curve” value was inactive: 746.

The same assay, now with this note: plate: PM8.
On to `CC(C)C[C@@H](N)C(=O)NCC(=O)O`, for which the “respiration area under curve” value was inactive: 0.429. Same read-out and setting: to `CC(C)C(N)C(=O)NC(CO)C(=O)O` (stereo not given) belongs inactive: 1090; to `NCC(=O)N[C@@H](CC(=O)O)C(=O)O`, inactive: 0.

Regarding `NC(=O)CC[C@H](NC(=O)[C@@H](N)CO)C(=O)O`, the “respiration area under curve” value is inactive: 1400.

`CC(C)[C@H](N)C(=O)N[C@@H](C)C(=O)O`: the “respiration area under curve” value is inactive: 355. On to `CC[C@H](C)[C@H](NC(=O)[C@@H](N)Cc1ccc(O)cc1)C(=O)O`, for which the “respiration area under curve” value was active: 6150. For `C[C@H](N)C(=O)N[C@@H](CCC(N)=O)C(=O)O`, the “respiration area under curve” value was active: 3080.

Consider `N[C@@H](Cc1ccccc1)C(=O)N[C@@H](CCC(=O)O)C(=O)O`, for which the “respiration area under curve” value is inactive: 0. Regarding `CC(C)C(NC(=O)C1CCCN1)C(=O)O` (stereo not given), the “respiration area under curve” value is inactive: 191. As for `CC(C)[C@H](N)C(=O)N[C@@H](Cc1ccc(O)cc1)C(=O)N[C@H](C(=O)O)C(C)C`, the “respiration area under curve” value is active: 7060. Same read-out and setting: to `C[C@@H](O)[C@H](N)C(=O)N[C@@H](CC(=O)O)C(=O)O` belongs inactive: 13.9; to `CC(C)[C@H](N)C(=O)N[C@@H](CCC(=O)O)C(=O)O`, inactive: 0.
